Source: PubChem BioAssay (NCATS)
Inconclusive results, whose numbers are uncertain, are shown with a selection of clear calls. For some of these results: Potencies beside an inconclusive call are fits to weak or partial responses and may not hold up. Active and inactive are the calls of the source. Calls come from the whole dose curve; as a rule, active = well fitted cell-killing curve with a large enough effect; inconclusive = small, poorly fitted or top-dose-only effect; inactive = flat fitted curve, though single readings scatter.

Key:
[1] = Cell Viability - LYMP2-021 (AID 974);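 note: compound exposure lasts 24 hours at 37 °C; nearly all actives have a fitted effect of over 55% in size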
Outline: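 Human lymphoblastoid LYMP2-021 cells, 2500/well in complete medium, treated 24 hours at 37 C. Intracellular ATP by CellTiter-Glo luminescence (30 min, RT); AC50 from Hill fits of concentration-response.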

[2] = Cell Viability - LYMP2-023 (AID 975); note: nearly all actives have a fitted effect of over 55% in size
Outline: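 LYMP2-023 human lymphoblastoid cells, 2500/well, preincubated 5 hr at 37 C, then compound-treated 24 hr at 37 C in complete medium. CellTiter-Glo luminescence (ATP) after 30 min at room temperature; AC50 from Hill-equation fits; tetraoctylammonium bromide positive control.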

[3] = Cell Viability - LYMP2-025 (AID 976); conditions: LYMP2-025 lymphoblastoid cell viability; activity change, negative = cytotoxicity: at 92.2 µM (top of the series)
Outline: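 Human lymphoblastoid LYMP2-025 cells, 2500/well, exposed 24 h at 37 C in complete medium in 1536-well qHTS. Viability as cellular ATP by CellTiter-Glo luminescence; AC50 from Hill fits of concentration-response data.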

[4] = Cell Viability - LYMP2-002 (AID 977); conditions: LYMP2-002 lymphoblastoid cell viability, qHTS; activity change, negative = cytotoxic: at 92.2 µM (top of the series)
Outline: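 Luminescent ATP readout (CellTiter-Glo, 30 min room temperature) after 24 h compound exposure at 37 C of a human lymphoblastoid line, 2500 cells/well. AC50 values derived by standard Hill fitting of qHTS concentration-response data.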

[5] = Cell Viability - LYMP2-006 (AID 978); note: nearly all actives have a fitted effect of over 60% in size
Outline: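 Human lymphoblastoid cells, 2500 per well, were preincubated 5 hr at 37 C, then exposed to compounds for 24 hr at 37 C in complete medium. Viability was read as intracellular ATP by CellTiter-Glo luminescence; AC50 from Hill-equation fits of qHTS concentration-response data.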

[6] = Cell Viability - LYMP2-007 (AID 979); conditions: LYMP2-007 lymphoblastoid cell viability; activity change, negative = cytotoxicity: at 92.2 µM (top of the series);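 note: cells exposed to compound for 24 h before reading; nearly all actives have a fitted effect of over 60% in size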
Outline: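 Human lymphoblastoid LYMP2-007 cells (2500/well) preincubated 5 h at 37 C, then treated 24 h at 37 C in complete medium. Viability by CellTiter-Glo ATP luminescence after 30 min at room temperature; AC50 from Hill fits.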

[7] = Cell Viability - LYMP2-008 (AID 980); conditions: LYMP2-008 lymphoblastoid cell viability, qHTS; note: nearly all actives have a fitted effect of over 60% in size
Outline: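 LYMP2-008 lymphoblastoid cells (2500/well) plated 5 h, then treated 24 h at 37 C in complete medium. Viability read as intracellular ATP by CellTiter-Glo luminescence after 30 min at room temperature; AC50 from Hill fits.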

[8] = Cell Viability - LYMP2-010 (AID 981); note: nearly all actives have a fitted effect of over 55% in size
Outline: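 Human lymphoblastoid LYMP2-010 cells (2500/well) treated 24 h at 37 C in complete medium; viability read as intracellular ATP by CellTiter-Glo luminescence. AC50 from Hill fits of concentration-response data; tetraoctylammonium bromide positive control.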

[9] = Cell Viability - LYMP2-014 (AID 983); note: nearly all actives have a fitted effect of over 50% in size
Outline: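 LYMP2-014 human lymphoblastoid cells, 2500/well, treated 24 h at 37 C in complete medium; viability by CellTiter-Glo ATP luminescence after 30 min at room temperature. AC50 from Hill fits of qHTS concentration-response; tetraoctylammonium bromide positive control.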

[10] = Cell Viability - LYMP2-016 (AID 984); conditions: LYMP2-016 lymphoblastoid cell viability, qHTS; activity change, negative = cytotoxicity: at 92.2 µM (top of the series); note: nearly all actives have a fitted effect of over 55% in size
Outline: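 Human lymphoblastoid cells (LYMP2-016), 2500/well in complete medium, preincubated 5 hr at 37 C, then compound-treated 24 hr at 37 C. Intracellular ATP read by CellTiter-Glo luminescence after 30 min at room temperature; AC50 from Hill-equation concentration-response fits.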

[11] = Cell Viability - LYMP2-022 (AID 987); note: nearly all actives have a fitted effect of over 55% in size
Outline: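 LYMP2-022 lymphoblastoid cells (2500/well, complete medium) were treated with compounds for 24 hours at 37 C; intracellular ATP was then read by CellTiter-Glo luminescence after 30 min at room temperature. AC50 values were derived from Hill-equation fits.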

[12] = Cell Viability - LYMP2-026 (AID 989); note: nearly all actives have a fitted effect of over 50% in size
Outline: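 Human lymphoblastoid LYMP2-026 cells, 2500/well, exposed to compound 24 h at 37 C in complete medium. Viability as intracellular ATP by CellTiter-Glo luminescence; AC50 from Hill fits of qHTS concentration-response.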

[13] = Cell Viability - LYMP1-002 - Assay at 40 hr (AID 994); note: nearly all actives have a fitted effect of over 60% in size
Outline: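 LYMP1-002 human lymphoblastoid cells (2500/well, complete medium) were treated with compounds for 40 hr at 37 C. Intracellular ATP was measured by CellTiter-Glo luminescence, and AC50 values came from Hill-equation fits of concentration-response data; tetraoctylammonium bromide was the positive control.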

Measured: Potency
Potency is the fitted concentration of half-maximal effect; tags give direction and shape of the fitted curve.

CN(C)c1ccc(C(=N)c2ccc(N(C)C)cc2)cc1
inconclusive: [1] 39.8 µM [cytotoxic, partial curve] | [2] 50.1 µM [cytotoxic, partial curve] | [3] 50.1 µM [cytotoxic, partial curve] | [4] 50.1 µM [cytotoxic, partial curve] | [5] 39.8 µM [cytotoxic, partial curve] | [6] 39.8 µM [cytotoxic, partial curve] | [7] 31.6 µM [cytotoxic, partial curve] | [8] 31.6 µM [cytotoxic, partial curve] | [10] 39.8 µM [cytotoxic, partial curve] | [12] 50.1 µM [cytotoxic, partial curve] | [13] 15.8 µM [cytotoxic, full curve]
active: [9] 39.8 µM | [11] 25.1 µM
